Assay results published in PubChem BioAssay AID493208 (National Center for Advancing Translational Sciences (NCATS), 2011).
The campaign covered roughly 44,000 compounds. About 340 (0.77%) were called active. Roughly 5% stayed inconclusive and do not appear here. Calls come from the whole dose curve; as a rule, active = well fitted inhibition curve with a large enough effect; inconclusive = small, poorly fitted or top-dose-only effect; inactive = flat fitted curve, though single readings scatter. The list shows a part of the results.

Experiment: Acumen qHTS Assay for Inhibitors of the mTORC1 Signaling Pathway in MEF (Tsc2-/-, p53-/-) Cells: Sytravon;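 note: plate controls were DMSO for no effect and rapamycin for full effect; nearly all actives have a fitted effect of over 50% in size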
Conditions: phospho-rpS6 immunofluorescence/PI, 24 h; series mostly up to 38.3 µM; activity change, negative = inhibition: at the top concentration
Summary of the method: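 Tsc2-/-, p53-/- MEFs (empty-vector stable line) in DMEM + 10% FBS were treated with compounds 24 h at 37 degree Celsius, fixed, and immunostained for phospho-rpS6 (Alexa-488) with propidium iodide counterstain. Laser-scanning cytometry gave % positive cells, normalized against 7.5 nM rapamycin and DMSO.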

| Structure (SMILES) | activity change, negative = inhibition |
| --- | --- |
| COC(=O)c1ccc(NC(=O)CSc2nnc3c4ccccc4n(C(C)C)c3n2)cc1 | inactive: -0.949% |
| Cc1ccc(NC(=O)c2ccc(CN3CC(=O)N4CCCCC4C3=O)cc2)c(C)c1 (stereo unspecified) | inactive: -16% |
| Cc1ccc2c(=O)c(C(=O)c3ccc(F)cc3)cn(CC(=O)Nc3ccc4c(c3)OCCO4)c2n1 | inactive: 4.8% |
| COC(=O)c1ccccc1NC(=O)c1nc(-c2ccc(Cl)cc2)n2c1CCCCC2 | inactive: -1.9% |
| CCOc1cccc(C(=O)Nc2cc(C)c(O)c(-c3nc4ncccc4o3)c2)c1 | inactive: 5.35% |
| COc1ccc(CNC(=O)CC(c2ccc(OC)cc2)N2Cc3ccccc3C2=O)cc1 (stereo unspecified) | inactive: -3.82% |
| CCOC(=O)c1c(NC(=O)c2cc(=O)c3cc(C)cc(C)c3o2)sc(C)c1C | inactive: -2.25% |
| O=C(CSc1nccn1C1CCCC1)Nc1cc(C(F)(F)F)ccc1Cl | inactive: -20.2% |
| Cc1ccc(-c2nn(CC(=O)NCc3ccccc3)c3c2cnc2ccc(F)cc23)cc1C | inactive: 0.278% |
| CCCNC(=O)CN1C(=O)COc2ccc(S(=O)(=O)N3CCC(C)CC3)cc21 | inactive: -10.3% |
| COc1ccc(OC)c(-n2c3c(cc(-c4nc(-c5ccc(Cl)cc5)cs4)c2=O)C(=O)CC(C)(C)C3)c1 | inactive: -2.4% |
| O=C(c1ccc2c(c1)N(Cc1ccccc1)C(=O)c1ccccc1S2(=O)=O)N1CCc2ccccc21 | inactive: -8.42% |
| Cc1c(NC(=O)C(C)(C)Oc2ccc(Cl)cc2)cccc1-c1nc2ccccc2o1 | inactive: 0.705% |
| COc1ccccc1CNC(=O)CSc1ccc(-c2sc(-c3ccccc3)nc2C)nn1 | inactive: 1.55% |
| CCOc1ccc(OCC)c(NC(=O)c2cc3ccccn3n2)c1 | inactive: 1.3% |
| CCC(=O)N1CCc2cc(S(=O)(=O)NC(Cc3ccccc3)C(=O)Nc3ccccc3C)ccc21 (stereo unspecified) | inactive: 0.136% |
| CN(C(=O)CSc1nnc(COc2ccccc2)o1)c1ccccc1 | inactive: 1.52% |
| CC(=O)c1cccc(NS(=O)(=O)c2cc3c(cc2C)n(C)c(=O)c(=O)n3C)c1 | inactive: -2.1% |
| Cc1cccc(NC(=O)C(=O)NCC(c2ccc3c(c2)OCO3)N2CCN(c3ccccc3)CC2)c1 (stereo unspecified) | inactive: -0.94% |
| CCOCCCNC(=O)C(c1ccccc1)N1Cc2ccccc2C1=O (stereo unspecified) | inactive: 1.18% |
| O=C(Nc1sc2c(c1C(=O)Nc1ccccc1)CCC2)c1ccc(Br)cc1 | inactive: 6.67% |

| Structure (SMILES) | activity change, negative = inhibition |
| --- | --- |
| CCc1ccc(NC(=O)Cn2c(=O)n(CCC(=O)NCCc3ccc(Cl)cc3)c(=O)c3ccccc32)cc1 | inactive: 8.88% |
| COc1ccc(C(=O)Nc2nc(-c3nnn(-c4ccc(C(C)C)cc4)c3C)ns2)cc1 | inactive: -5.61% |
| COc1ccccc1CCNC(=O)C(C)Sc1nc(-c2ccccc2)cc(C(F)(F)F)n1 (stereo unspecified) | inactive: 3.03% |
| O=C(Cn1ncn2c(cc3ccccc32)c1=O)NCc1ccc(F)cc1 | inactive: 1.12% |
| COc1ccc(F)cc1S(=O)(=O)Nc1cccc(-c2ccc(N3CCC(C)CC3)nn2)c1 | inactive: -4.18% |
| Cc1ccc(-c2cc(-c3ccccc3)c(C#N)c(SCC(O)CS(=O)(=O)Cc3ccccc3)n2)cc1 (stereo unspecified) | inactive: 8.09% |
| COc1ccc(Nc2ncnc3c2nc2n3CCCCC2)cc1 | inactive: 0.485% |
| CCCOc1ccc(CNC(=O)c2[nH]c3cc(OC)ccc3c2Sc2ccccc2)cc1 | inactive: -11.6% |
| CC(=O)Nc1ccc(N(C(=O)Cn2nnc3ccccc32)C(C(=O)NCc2ccccc2)c2ccc(C)cc2)cc1 (stereo unspecified) | inactive: -12.4% |
| COc1ccc(CCNC(=O)c2c(C)oc3ncn(C)c(=O)c23)c(OC)c1 | inactive: -4.19% |
| O=C1C(c2ccc(F)cc2)N(CCc2ccccc2)C(=O)CN1C1CCCCCC1 (stereo unspecified) | inactive: 5.5% |
| CCN(C(=O)CSc1nc2ccccc2n1Cc1ccc(F)cc1Cl)c1ccccc1 | inactive: 5.9% |
| CCOC(=O)C(Cc1c[nH]c2ccccc12)NC(=O)COc1ccc(CC)cc1 (stereo unspecified) | inactive: 6.77% |
| Cc1cc(NC(=O)CN2CCC(C)CC2)nc2c1c(=O)oc1ccccc12 | inactive: 7.03% |
| COc1ccc(C)cc1N(C)C(=O)CCc1nc(-c2ccccc2F)no1 | inactive: -22.5% |
| CCOC(=O)c1c(C)[nH]c(C)c1S(=O)(=O)N1CCC(C(=O)NCc2ccccc2Cl)CC1 | inactive: 0.814% |
| Cc1ccc(Cl)cc1NC(=O)CN1C(=O)CCc2ccccc21 | inactive: 0% |
| CCCCNc1oc(-c2ccc(COc3ccc(OC)cc3)o2)nc1C#N | inactive: -8.43% |
| COc1ccc(CC(=O)NCc2nc3cccnc3n2Cc2ccccc2)cc1 | inactive: -0.644% |
| COC(=O)c1ccccc1NC(=O)CCCn1c(=O)c2cccn2c2cccnc21 | inactive: -2.7% |
| CN(C)c1ccc(Nc2ncnc3sc4c(c23)CCCC4)cc1 | inactive: 0% |

| Structure (SMILES) | activity change, negative = inhibition |
| --- | --- |
| O=C(Cn1cnc2ccccc2c1=O)NCCC(=O)Nc1ccc(F)cc1 | inactive: 4.99% |
| CC(C)COc1ccc(C(=O)Nc2cc(-c3ccccc3)no2)cc1 | inactive: 1.76% |
| COc1cccc(N2CCN(S(=O)(=O)c3cc(-c4cc(C)no4)ccc3C)CC2)c1 | inactive: -2.32% |
| CCCCN(CC)CCCNC(=O)Cn1ncc2c([nH]c3ccc(C)cc32)c1=O | inactive: 7% |
| O=c1c2cn[nH]c2nc(SCc2c(F)cccc2F)n1-c1ccc(Cl)cc1 | inactive: 3.51% |
| CCOc1cccc(C(=O)Nc2nc3c(s2)CC(C(C)(C)C)CC3)c1 (stereo unspecified) | inactive: 2.75% |
| COc1ccc(N(CC(=O)N2CCN(c3ccc(F)cc3)CC2)S(=O)(=O)c2c(C)noc2C)cc1 | inactive: -9.6% |
| O=C(NCc1ccco1)c1ccc2c(c1)N(Cc1ccc(F)cc1)C(=O)c1ccccc1S2(=O)=O | inactive: -18.3% |
| COc1cccc(CNC(=O)c2cc(Sc3cccc(Cl)c3)nc3ccccc23)c1 | inactive: 3.22% |
| Cc1ccc(/C=C/C(=O)Nc2ccccc2C(N)=O)o1 | inactive: -0.927% |
| COc1cc(OC)cc(-c2nc3n(n2)C(c2ccccc2)C(C(N)=O)=C(C)N3)c1 (stereo unspecified) | inactive: 3.12% |
| COc1ccccc1NC(=O)COc1ccc(-c2nn(C)c(=O)c3ccccc23)cc1 | inactive: -1.44% |
| Cc1c(C(=O)N2CCOCC2)oc2c1-c1nn(CC(=O)NCc3cccc(Cl)c3)cc1CC2 | inactive: -1.07% |
| CCOC(=O)c1c(NC(=O)COc2cccc(C)c2C)sc2c1CCC(CC)C2 (stereo unspecified) | inactive: -0.755% |
| Cn1c(=O)oc2cc(S(=O)(=O)N3CCC(C(=O)N4CCN(c5ccccc5F)CC4)CC3)ccc21 | inactive: -0.552% |
| COc1cc(Cl)c(C)cc1NC(=O)CC(c1ccc(F)cc1)N1Cc2ccccc2C1=O (stereo unspecified) | inactive: -1.01% |
| Cc1ccc(CCNC(=O)c2c(C)oc3ncn(CC(C)C)c(=O)c23)cc1 | inactive: -8.39% |
| CC(C)(C)OC(=O)N1CCC(c2c(C(=O)NCCc3ccccc3)cnn2-c2ccc(F)cc2F)CC1 | inactive: 3.54% |
| COc1ccc(-c2c(C)c3ccc(O)c(CN4CCN(CCO)CC4)c3oc2=O)cc1OC | inactive: -4.5% |
